The other results are listed elsewhere or left out.
T1: UNK ZnF1-3 (human, UniProt Q9C0B0 31-174)
T1 sequence: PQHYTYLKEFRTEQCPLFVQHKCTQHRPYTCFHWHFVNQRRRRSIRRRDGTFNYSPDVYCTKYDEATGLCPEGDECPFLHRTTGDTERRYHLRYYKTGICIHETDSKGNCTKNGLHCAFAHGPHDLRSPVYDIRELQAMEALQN

B1: chr1:163116782:163116783:-_ENSG00000143248_ENST00000313961|hu_mus|FALSE|FALSE (ssRNA)
RNA: GGGAGUUCUACAGUCCGACGAUCCCAUGAAAGGGGACACUUGCAUCUGUUUUUCUUUUCAGCCUGGUUAAAAUAGCAGUCUAUCACCUAUUCUUUGCACAGACAGCUUUAUGUUAAACUGGAUAUUUUUGUGACUUAGACUGACAACAGAGGAUUGAGCAUCA
B2: chrX:20248820:20248821:+_ENSMUSG00000001924_ENSMUST00000001989|mus_mus|mus_mus_mus_hu_True|58_78 (ssRNA)
RNA: GGGAGUUCUACAGUCCGACGAUCGGCGAAGUCCGUCACCACAAAGUCAGGUUCUGCCAGUGAUGCUACCAAGGAUUUAAAACUAAUCUUCUUAGGUACUUUGACCUGACUGACGAUGCCUCCACGGAUGUAGUCGGAGAAGUUCAACAGAGGAUUGAGCAUCA
B3: 125022445_125022653_1941_CDS_ENSMUSG00000014444_ENSMUST00000067252|mouse|control|control (ssRNA)
RNA: GGGAGUUCUACAGUCCGACGAUCCAGCAGCGUCUGGGUCUGUGUGGGCUCAGUGUCGGCCACCGUGACCUCCAAAAGCGCCGCAGGCACCUUUUGCUUCUUCAGCAGCUUCUCCUUCACGAACUGACGCAGAAGGAGCCAGAACAACAGAGGAUUGAGCAUCA
B4: 86455588_86455959_2559_CDS_ENSMUSG00000013033_ENSMUST00000141158|mouse|control|control (ssRNA)
RNA: GGGAGUUCUACAGUCCGACGAUCCACUGAGGAGGACACGUCCCCAGCAUAGAUAGAGCCCCGUGUGUGGCGGGCCAGCUCACUGGCAAUGUUGGCCGCAUUCUCUCCACUCUUGAUCUUCUGGGCUACUUGGUUGACCCAGGGCAACAGAGGAUUGAGCAUCA
B5: chr2:176857102:176857103:-_ENSG00000144320_ENST00000272748|hu_hu|FALSE|FALSE (ssRNA)
RNA: GGGAGUUCUACAGUCCGACGAUCGGAAUACAGAAUUAAUCUUCCAACCCAUAAUUUUUGUAAUCUCUGAUUUUUUUCCCUAAAUUCUUCCAAUGCUUGAAUUUCCUUAUCUAUACUUUCUAGAACUUCUACAGUUGAAGGUUUCAACAGAGGAUUGAGCAUCA
B6: 15742733_15743951_717_CDS_ENSG00000079785_ENST00000233084|human|control|control (ssRNA)
RNA: GGGAGUUCUACAGUCCGACGAUCAAACUUGUCAGUACCUAGGUCCAAAGAGGCCUGCAUGGUAGACCACCCGACCCUGCAUAACCCUUGGUCAUGACAGGAUACUUCAUAGUAGUGUUUCCCUUUCAUUAAUCCUUUAGUAGCCAACAGAGGAUUGAGCAUCA
B7: chr1:78428520:78428521:-_ENSG00000162613_ENST00000370768|hu_mus|motif|central (ssRNA)
RNA: GGGAGUUCUACAGUCCGACGAUCCCCUAAAGGAUUUACUGGGCCCCCAAUCUUCUCUUCUAUGAGUUGUCGAGCAUAGUCGGUUUGCUGUGGAGUGCCCCGAAUUGUAAAUAACUUCAUAUUGGGAUCUGCAUUAGGUGGAGGCAACAGAGGAUUGAGCAUCA
B8: chr12:72179577:72179578:+_ENSG00000080371_ENST00000261263|hu_mus|FALSE|FALSE (ssRNA)
RNA: GGGAGUUCUACAGUCCGACGAUCGUUUAGCACUUAAGGUCUCUGCAGUGUUAUAAACGUAAUUGAAAAUACUGUUAAUUCUAUAACUCCAUUGGUAAAAUGAUGUGACUUGGAAUAUGGCAGUCUUCAUGUUGAGGGCAAUGACAACAGAGGAUUGAGCAUCA
B9: chrX:141883135:141883136:-_ENSMUSG00000041688_ENSMUST00000112835|mus_mus|motif|central (ssRNA)
RNA: GGGAGUUCUACAGUCCGACGAUCCUUGCAUCAAUCUGAUUUCUAACUUAACACAUCUCUAAACGUCUAUCUCCCUUACCGGAUACCCUCCCACCCUUAACUUCCCUAGACCCCUGAAAACUCAUCUUAAUGGUACUAUCUGUACAACAGAGGAUUGAGCAUCA
B10: 9950488_9954092_829_3pUTR_ENSG00000101558_ENST00000400000|human|control|control (ssRNA)
RNA: GGGAGUUCUACAGUCCGACGAUCGUUUAUCCGAAUGUGCUACCUUUCUGAGCCUUAAACCUUCAUCUCUCAGGUGCCGAUUUUCUUCUGAUAGCUUCAUCAUUUCUCCCUGAAGUCUUUUACACUCUUCCAUUAGUUUCCUUGCAACAGAGGAUUGAGCAUCA
B11: chr17:65740002:65740003:+_ENSG00000130935_ENST00000581375|hu_hu|hu_hu_hu_mus_False|88_108 (ssRNA)
RNA: GGGAGUUCUACAGUCCGACGAUCAACCCGUUCUUGCUCCCUGGACGCAAGAGUUCAUUCAUAUUAAAAAAAAUAUAUAUCCAUCAAGUUAGGUGUGGUGGCCACACCUUUACUCCCAGCACUUUGGGAGGUGGAUCUCUGAGUCAACAGAGGAUUGAGCAUCA
B12: chr15:64983782:64983783:-_ENSG00000180304_ENST00000326005|perfect_dup|motif|central (ssRNA)
RNA: GGGAGUUCUACAGUCCGACGAUCCCUGGAACAAUGUGCCUGCAGCACUGGAGCUGGGGACAGUUACUCAAAGGCAAAAUACGGCUGUCCUGGGUGUUUAUCAUCCUCGGCGGCUCUGCUCAGGGUGGGAGGAGGCGGCGCAGGCAACAGAGGAUUGAGCAUCA
B13: 20693198_20693318_2348_3pUTR_ENSMUSG00000043004_ENSMUST00000160013|mouse|control|control (ssRNA)
RNA: GGGAGUUCUACAGUCCGACGAUCUGCAUUUGUACAUUAAUAAUCAUUCCGGUACCCUCUUCUCUCCCACCCCAGGUCUGAACUUUAAUUGGACAUAGUUAACUCCUUUAGCUGAAAGCCCAUAAAAGAGUUAAGAGAAAUAUCCAACAGAGGAUUGAGCAUCA
B14: chr1:220276048:220276049:+_ENSG00000067704_ENST00000302637|hu_hu|hu_hu_hu_mus_True|48_68 (ssRNA)
RNA: GGGAGUUCUACAGUCCGACGAUCGCAAAUUGCCUGGUUGGCGGGAAUUGUCCAAGGCUGGGUGGUCCAGACCAAAACGCUAACAGGAGAUGAACCAUCUGUAAGAGACUCCAACUUCGGAGGAGGUCUCAGGAGGGGGAAUCUCAACAGAGGAUUGAGCAUCA
B15: chrX:98862621:98862622:+_ENSMUSG00000034160_ENSMUST00000044475|mus_hu|mus_mus_mus_hu_False|88_88 (ssRNA)
RNA: GGGAGUUCUACAGUCCGACGAUCCUGCAUCUCCUUUAGAGUGUUUCCCAUAUUGGAGUAGGCAUCAGCAAAGGUAGGACUGAUUCGAAUAGCCUCCUUAUAAUGCAUCAGAGCUUCCUGCAGUUUUCCCUGCUGCUGCAGUACCAACAGAGGAUUGAGCAUCA
B16: chr22:19452774:19452775:-_ENSG00000070010_ENST00000399523|hu_hu|hu_hu_hu_mus_False|48_88 (ssRNA)
RNA: GGGAGUUCUACAGUCCGACGAUCCUUCUCAUUGUAGUUGAUAGCAAUCACAUCCCCAGUCGUCAGACAGGCGAAGUUUCUCAAUGCGUUUUCUAAUACCGCUUUAGGGUUGGUAAUAUCCAGGAAGUCUGGGCUCUGAGGCUGCAACAGAGGAUUGAGCAUCA
B17: chr3:138341159:138341160:+_ENSG00000158234_ENST00000393035|hu_hu|motif|central (ssRNA)
RNA: GGGAGUUCUACAGUCCGACGAUCGAGACUUUUCCCAUUAAUUUCCAGAGUAUAUUCAUAAGCAAAACCACUGAUAGCGUCGGUAUUUAUGGUCGCUUUUGUCUUUGCAGCUCCAACAUAGAAUGUUUCUUUGCCCACUAAUUUCAACAGAGGAUUGAGCAUCA
B18: chr1:27731043:27731044:-_ENSG00000158195_ENST00000430629|hu_mus|FALSE|FALSE (ssRNA)
RNA: GGGAGUUCUACAGUCCGACGAUCCAGGUCCCACCUCCCAACCUUUGGGAAGAAAGGGUCUAUUUUUAGACAGUAUUCCCUCUAUGCAUUAGCUAGCAGAAAUCUUGAUAUGGGAAACACCAAGAGCCUAUUGGAAUAGGUCCUCAACAGAGGAUUGAGCAUCA
B19: chr12:77883889:77883890:+_ENSMUSG00000090258_ENSMUST00000041262|mus_mus|FALSE|FALSE (ssRNA)
RNA: GGGAGUUCUACAGUCCGACGAUCGAAGAGCAGUCGGGUGCUCUUACCCACUGAGCCAUCUCACCAGCCCUAGGCUUGCUCUAUUUUAAAGCAAGCCAACACAGUUACAAGAGAACCAUGGGAGGCUUAGAACAGCAGAGUCAUCAACAGAGGAUUGAGCAUCA
B20: chr11:106647441:106647442:-_ENSMUSG00000020719_ENSMUST00000021062|mus_mus|motif|central (ssRNA)
RNA: GGGAGUUCUACAGUCCGACGAUCUAUGUGUACAAUGGCAGGCAGCAAAUAAGAUAAUGUUUUCCCAGAUCCAGUCUGAGCGGCUCCAACCAUAUCCAAUCCACUGAGAGCAACUGGCCAGCCCUGAGCUUGAAUAGCAGUGGGCAACAGAGGAUUGAGCAUCA
B21: chr3:41417089:41417090:+_ENSMUSG00000025764_ENSMUST00000026865|mus_mus|motif|central (ssRNA)
RNA: GGGAGUUCUACAGUCCGACGAUCAACCAAGGAAGUGCCCAUUUGUUUCCUGAAGAAUGCAGAAUGCCAUUUCAAGUCCUCGGUCUUGGGAGCAUUGGGGCCCACAGAAGGACUGUUGAAAAAAAGCAUGUUCUCCAGUGCGGACAACAGAGGAUUGAGCAUCA
B22: chrX:50293416:50293417:+_ENSMUSG00000025626_ENSMUST00000078944|mus_mus|FALSE|FALSE (ssRNA)
RNA: GGGAGUUCUACAGUCCGACGAUCUUUCUUCUUAGUCUUUGGAGAUGAGGGCUCCAGUUCAUGCUCAUUAAAACUUUCUUCUAAAUCAGCUUCCGAGUUAUGUGCAGUUUUCUUGUGUUUUCGACAAUAAACCAUGUAAAUCCCCAACAGAGGAUUGAGCAUCA

Target: T1, UNK ZnF1-3
Assay: nsRBNS (natural sequence RNA bind-n-seq); RBNS binding buffer (assumed for nsRBNS): 25 mM Tris pH 7.5, 150 mM KCl, 3 mM MgCl2, 0.01% Triton X-100, 500 ug/ml BSA, 20 U/ml SUPERase-In, 4 C; UNK is unkempt and MSI1 is Musashi-1; names of the RNAs are library labels; protein concentration not given here; high values mean tight binding

Binder	binding signal
B1	0.921 enrichment R
B2	0.856 enrichment R
B3	0.609 enrichment R
B4	0.6 enrichment R
B5	0.711 enrichment R
B6	0.821 enrichment R
B7	1.32 enrichment R
B8	1.12 enrichment R
B9	2.29 enrichment R
B10	0.306 enrichment R
B11	0.943 enrichment R
B12	1.02 enrichment R
B13	1.53 enrichment R
B14	1.83 enrichment R
B15	0.851 enrichment R
B16	0.729 enrichment R
B17	0.915 enrichment R
B18	0.86 enrichment R
B19	1.36 enrichment R
B20	1.71 enrichment R
B21	1.44 enrichment R
B22	0.697 enrichment R
